# Assay results from the supplement of paper PMC10037445.
# ± gives the standard deviation of the averaged measurements. Whole data set: some 2,900 compounds, median “IRF Lucia reporter activity, fold change vs agonist alone” near 0.9, cut for the highest 2% near 2.8. This is one part of the list.
# Tests used:
# RAW-Dual [1] = assay: IRF Lucia reporter activity, fold change vs agonist alone; cytotoxicity flag (confluency mask): not cytotoxic; higher = enhanced IRF activity
# In short: (§1)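 After 50 nL of library stock was delivered by pin tool to RAW-Dual macrophages (50,000 cells/well, DMEM, 384-well plates), a PRR agonist was added 1 h later and the plates were kept at 37 °C, 5% CO2. Twenty hours later, IRF was read from supernatant by QuantiLuc luminescence and NF-κB by QuantiBlue absorbance at 620 nm. Reporter activity is stated as fold change over agonist-alone wells. Wells with IncuCyte confluency under 70% of agonist controls in both mask sets were counted as cytotoxic.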
# RAW-Dual [2] = assay: IRF Lucia reporter activity, fold change vs agonist alone; higher = enhanced IRF activity; details: library stock concentration (final ~1000-fold dilution): 10 mM, agonist: MPLA (TLR4) […]
# In short: as §1
# RAW-Dual [3] = assay: IRF Lucia reporter activity, fold change vs agonist alone; cytotoxicity flag (confluency mask): cytotoxic (confluency <70% of control); higher = enhanced IRF activity
# In short: as §1
# [4] = agonist: 3'3'-cGAMP (STING) 10 ug/mL
# [5] = cytotoxicity flag (confluency mask): not cytotoxic
smiles,measurement,setting,value
COCCc1ccc(OCC(O)CNC(C)C)cc1 (stereo not given) (library stock concentration (final ~1000-fold dilution): 10 mM),IRF Lucia reporter activity,RAW-Dual [1]; [4],1.04
same,IRF Lucia reporter activity,RAW-Dual [1]; agonist: LPS (TLR4) 0.1 ug/mL,1.38
COCCc1ccc(OCC(O)CNC(C)C)cc1 (stereo not given),IRF Lucia reporter activity,RAW-Dual [2]; [5],1.07
CC1OC(OC2C(=O)c3c(O)cc(O)cc3OC2c2ccc(O)cc2)C(O)C(O)C1O (stereo not given) (library stock concentration (final ~1000-fold dilution): 10 mM),IRF Lucia reporter activity,RAW-Dual [1]; [4],1.01 ± 0.044
same,IRF Lucia reporter activity,RAW-Dual [1]; agonist: LPS (TLR4) 0.1 ug/mL,0.948 ± 0.27
CC1(C)OCC(COC(=O)CCc2ccc(OCC(O)CNCCNC(=O)N3CCOCC3)cc2)O1.Cl (stereo not given),IRF Lucia reporter activity,RAW-Dual [2]; [5],1.1
CC1(C)OCC(COC(=O)CCc2ccc(OCC(O)CNCCNC(=O)N3CCOCC3)cc2)O1.Cl (stereo not given) (library stock concentration (final ~1000-fold dilution): 10 mM),IRF Lucia reporter activity,RAW-Dual [1]; [4],1.05
same,IRF Lucia reporter activity,RAW-Dual [1]; agonist: LPS (TLR4) 0.1 ug/mL,0.99
COc1ccc2c(c1)C(C(=O)N(Cc1ccc(N(C)C)cc1)c1ccc(C(C)C)cc1)CCC2 (stereo not given) (library stock concentration (final ~1000-fold dilution): 10 mM),IRF Lucia reporter activity,RAW-Dual [1]; [4],1.21
same,IRF Lucia reporter activity,RAW-Dual [1]; agonist: LPS (TLR4) 0.1 ug/mL,0.932
CC(C)=CCC(O)C1=CC(=O)c2c(O)ccc(O)c2C1=O (stereo not given) (library stock concentration (final ~1000-fold dilution): 10 mM),IRF Lucia reporter activity,RAW-Dual [1]; [4],0.00786
same,IRF Lucia reporter activity,RAW-Dual [1]; agonist: LPS (TLR4) 0.1 ug/mL,0.0123
CC(C)Cc1ccc(C(C)C(=O)O)cc1 (stereo not given) (library stock concentration (final ~1000-fold dilution): 10 mM),IRF Lucia reporter activity,RAW-Dual [1]; [4],1.12
same,IRF Lucia reporter activity,RAW-Dual [1]; agonist: LPS (TLR4) 0.1 ug/mL,1.02
CC(C)Cc1ccc(C(C)C(=O)O)cc1 (stereo not given),IRF Lucia reporter activity,RAW-Dual [2]; [5],1.06
CN1CC2c3ccccc3Oc3ccc(Cl)cc3C2C1.O=C(O)/C=C\C(=O)O (stereo not given),IRF Lucia reporter activity,RAW-Dual [2]; cytotoxicity flag (confluency mask): cytotoxic (confluency <70% of control),1.95
CN1CC2c3ccccc3Oc3ccc(Cl)cc3C2C1.O=C(O)/C=C\C(=O)O (stereo not given) (library stock concentration (final ~1000-fold dilution): 10 mM),IRF Lucia reporter activity,RAW-Dual [3]; [4],0.746
same,IRF Lucia reporter activity,RAW-Dual [3]; agonist: LPS (TLR4) 0.1 ug/mL,0.716
O=C(/C=C/N1CC2CC1CN2c1ccccn1)c1ccccc1O (stereo not given) (library stock concentration (final ~1000-fold dilution): 10 mM),IRF Lucia reporter activity,RAW-Dual [1]; [4],1.08
same,IRF Lucia reporter activity,RAW-Dual [1]; agonist: LPS (TLR4) 0.1 ug/mL,0.97
O=C(/C=C/N1CC2CC1CN2c1ccccn1)c1ccccc1O (stereo not given),IRF Lucia reporter activity,RAW-Dual [2]; [5],0.948
COc1ccnc(CS(=O)c2nc3ccc(OC(F)F)cc3[nH]2)c1OC (stereo not given) (library stock concentration (final ~1000-fold dilution): 10 mM),IRF Lucia reporter activity,RAW-Dual [1]; [4],1.02
same,IRF Lucia reporter activity,RAW-Dual [1]; agonist: LPS (TLR4) 0.1 ug/mL,1.01
COc1ccnc(CS(=O)c2nc3ccc(OC(F)F)cc3[nH]2)c1OC (stereo not given),IRF Lucia reporter activity,RAW-Dual [2]; [5],1.02
CN1CCC(=C2c3ccccc3CCn3c(C=O)cnc32)CC1,IRF Lucia reporter activity,RAW-Dual [2]; [5],0.987
CN1CCC(=C2c3ccccc3CCn3c(C=O)cnc32)CC1 (library stock concentration (final ~1000-fold dilution): 10 mM),IRF Lucia reporter activity,RAW-Dual [1]; [4],0.969
same,IRF Lucia reporter activity,RAW-Dual [1]; agonist: LPS (TLR4) 0.1 ug/mL,1.14
Cc1cc(F)c(C(=O)Nc2cccc(-c3nncn3C(C)C)n2)cc1-n1cnc(C2CC2)c1 (library stock concentration (final ~1000-fold dilution): 10 mM),IRF Lucia reporter activity,RAW-Dual [1]; [4],0.222
same,IRF Lucia reporter activity,RAW-Dual [1]; agonist: LPS (TLR4) 0.1 ug/mL,0.688
O=C(Nc1ccc(CN2CCOCC2)cc1)c1ccc(-c2cccc(Cl)c2)o1,IRF Lucia reporter activity,RAW-Dual [2]; [5],1.1
O=C(Nc1ccc(CN2CCOCC2)cc1)c1ccc(-c2cccc(Cl)c2)o1 (library stock concentration (final ~1000-fold dilution): 10 mM),IRF Lucia reporter activity,RAW-Dual [1]; [4],0.832
same,IRF Lucia reporter activity,RAW-Dual [1]; agonist: LPS (TLR4) 0.1 ug/mL,0.499
COc1cc2c(cc1OC)CC(=O)N(CCCN(C)CC1Cc3cc(OC)c(OC)cc31)CC2.Cl (stereo not given) (library stock concentration (final ~1000-fold dilution): 10 mM),IRF Lucia reporter activity,RAW-Dual [1]; [4],0.904
same,IRF Lucia reporter activity,RAW-Dual [1]; agonist: LPS (TLR4) 0.1 ug/mL,1.01
COc1cc2c(cc1OC)CC(=O)N(CCCN(C)CC1Cc3cc(OC)c(OC)cc31)CC2.Cl (stereo not given),IRF Lucia reporter activity,RAW-Dual [2]; [5],0.93
CC(C)Oc1ccc(C(=O)NC(CNC(=O)CN(C)C)Cc2ccc(-c3cn4cccc(C(C)O)c4n3)cc2)cc1Cl (stereo not given),IRF Lucia reporter activity,RAW-Dual [2]; [5],1.61
CC(C)Oc1ccc(C(=O)NC(CNC(=O)CN(C)C)Cc2ccc(-c3cn4cccc(C(C)O)c4n3)cc2)cc1Cl (stereo not given) (library stock concentration (final ~1000-fold dilution): 10 mM),IRF Lucia reporter activity,RAW-Dual [1]; [4],0.535
same,IRF Lucia reporter activity,RAW-Dual [1]; agonist: LPS (TLR4) 0.1 ug/mL,1.24
N=C(CCl)NCCCC(NC(=O)c1ccccc1)C(N)=O.O=C(O)C(F)(F)F (stereo not given) (library stock concentration (final ~1000-fold dilution): 10 mM),IRF Lucia reporter activity,RAW-Dual [1]; [4],0.913
same,IRF Lucia reporter activity,RAW-Dual [1]; agonist: LPS (TLR4) 0.1 ug/mL,0.53
CCCN1CCCCC1C(=O)Nc1c(C)cccc1C (stereo not given) (library stock concentration (final ~1000-fold dilution): 10 mM),IRF Lucia reporter activity,RAW-Dual [1]; [4],1.01
same,IRF Lucia reporter activity,RAW-Dual [1]; agonist: LPS (TLR4) 0.1 ug/mL,1.26
CCCN1CCCCC1C(=O)Nc1c(C)cccc1C (stereo not given),IRF Lucia reporter activity,RAW-Dual [2]; [5],1.07
Cc1cn(-c2cc(NC(=O)c3ccc(C)c(Nc4nccc(-c5cnccn5)n4)c3)cc(C(F)(F)F)c2)cn1 (library stock concentration (final ~1000-fold dilution): 10 mM),IRF Lucia reporter activity,RAW-Dual [1]; [4],1.02
same,IRF Lucia reporter activity,RAW-Dual [1]; agonist: LPS (TLR4) 0.1 ug/mL,0.993
